Results taken from PMC8886540 (The EMBO Journal, 2022).

Molecular target: Candida albicans actin (C. albicans, UniProt P14235 1-376)
Assay: fluorescence microscopy of a labelled protein on reconstituted actin networks

UniProt P14235, sequence (P14235 whole entry): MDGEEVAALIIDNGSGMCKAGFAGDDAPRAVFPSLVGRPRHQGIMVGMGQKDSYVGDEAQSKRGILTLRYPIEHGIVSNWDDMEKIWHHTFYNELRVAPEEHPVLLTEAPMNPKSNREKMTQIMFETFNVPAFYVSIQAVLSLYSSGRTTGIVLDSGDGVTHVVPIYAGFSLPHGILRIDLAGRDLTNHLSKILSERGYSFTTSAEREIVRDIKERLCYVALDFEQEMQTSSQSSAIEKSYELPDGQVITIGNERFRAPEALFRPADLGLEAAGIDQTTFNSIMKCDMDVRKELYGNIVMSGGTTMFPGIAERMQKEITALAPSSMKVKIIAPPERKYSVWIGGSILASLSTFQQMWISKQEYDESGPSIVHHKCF

B1: Alexa-488-labeled S. cerevisiae ADF/cofilin D34C (natural protein)
chain: not shown
modifications: Alexa Fluor 488 C5-maleimide
B1: binds.
